Assay results from PubChem BioAssay AID463173 (ICCB-Longwood Screening Facility, Harvard Medical School, 2010).
The campaign covered roughly 52,000 compounds. About 4,300 (8.3%) were called active. Rule as the data show it: active = survival mostly below about 52% (no sharp cut-off); inactive = mostly above about 56%. This is one part of the list.

What follows are molecules tested on DeltatarO mutant (assay: growth inhibition of S. aureus wild type versus tarO mutant, primary screen, teichoic acid synthesis inhibitors, RN4220, OD600 (AID 463173)). Conditions: OD600, 18 h, active compounds read low, screened at 18.75 µg/mL (by protocol).

Row | Compound | survival
1 | O=c1[nH]c(C2CCN(S(=O)(=O)Cc3ccccc3)CC2)nc2c1nnn2Cc1cccc(Cl)c1 | inactive: 67%
2 | Cc1cc(N2CCN(C)CC2)nc2ccc(NC(=O)c3ccccc3F)cc12 | inactive: 122%
3 | CCCC(=O)N1CCCC(c2nc(-c3ccc(C(C)C)cc3)no2)C1 (stereo not drawn) | inactive: 103%
4 | CC(=O)Nc1ccc(S(=O)(=O)N2CCN(c3ccc(C)c(C)c3)CC2)cc1 | inactive: 94%
5 | CC(C)NC(=O)c1ccc(Cl)cc1Cl | inactive: 73%
6 | Cc1cccc(Cn2c(CN3CCC(C(=O)NCc4ccccc4Cl)CC3)cc3ccccc32)c1 | inactive: 88%
7 | O=C(O)CCSc1nc2ccccc2o1 | inactive: 87%
8 | COc1ccc(Cn2c(CNS(=O)(=O)c3ccc(Cl)s3)nc3cccnc32)cc1 | inactive: 94%
9 | Cc1ccc(C(=O)Nc2cc(-c3nc4cc(Cl)ccc4o3)ccc2C)c(C)c1 | inactive: 85%
10 | C[N+]1=C(/C=C/Nc2ccccc2)SCC1 | inactive: 96%
11 | CCCN1C(=O)c2[nH]nc(-c3ccc(OC)cc3)c2C1c1ccccn1 (stereo not drawn) | inactive: 47%
12 | CCOCCCNC(=O)C1CCN(c2nc3ccc(Cl)cc3[nH]2)CC1 | inactive: 83%
13 | CNC(=O)C1CCC(Cn2c(=O)c3sccc3n(CC(=O)Nc3cc(C)cc(C)c3)c2=O)CC1 (stereo not drawn) | inactive: 70%
14 | COc1cccc(NC(=O)Cn2nc(-c3ccncc3)ccc2=O)c1 | inactive: 88%
15 | CCOc1ccc(NC(=O)C(=O)NCCc2sc(-c3ccc(C)cc3)nc2C)cc1 | inactive: 79%
16 | CC(C)c1ccc(C(=O)CC2(O)C(=O)N(CCc3ccccc3)c3ccc(Cl)cc32)cc1 (stereo not drawn) | active: 33%
17 | O=C(c1c[nH]c2ccc(S(=O)(=O)Nc3ccccc3F)cc2c1=O)N1CCCCCC1 | inactive: 83%
18 | COc1ccc(OC)c(NC(=O)C2CCN(S(=O)(=O)c3c(C)noc3/C=C/c3ccc(C)cc3)CC2)c1 | inactive: 71%
19 | CC1CCCCN1CCCNC(=O)c1sc2ncccc2c1-n1cccc1 (stereo not drawn) | active: 25%
20 | CCC(C)n1c(=N)c(C(=O)NCc2ccco2)cc2c(=O)n3cc(C)ccc3nc21 (stereo not drawn) | inactive: 77%
21 | CC(C)(O)C(=O)N=Nc1c(O)[nH]c2ccccc12 | inactive: 94%
22 | C/C(=N\N)c1ccc(OC(C)C)c(CN2CCOCC2)c1 | inactive: 91%
23 | COc1cc(C2SCC(C(=O)O)N2C(C)=O)cc(Br)c1O (stereo not drawn) | inactive: 100%
24 | COc1ccc(Cl)cc1C(=O)NCC(c1ccc(N(C)C)cc1)N1CCCC1 (stereo not drawn) | inactive: 99%

Row | Compound | survival
25 | Cc1cc2ccccc2nc1SCCN1CCOCC1 | inactive: 94%
26 | Cc1ccc(C)c(NC(=O)Cn2c(=O)n(CCCS(=O)(=O)C3CCCCC3)c(=O)c3ccccc32)c1 | inactive: 91%
27 | O=C(Cn1c(-c2cccs2)cc2cc(Cl)ccc21)N1CCCCC1 | inactive: 83%
28 | Cc1ccc(NC(=O)C2CCCN(S(=O)(=O)c3ccc4c(c3)CCCC(=O)N4)C2)cc1N(C)C (stereo not drawn) | inactive: 72%
29 | CN(C(=O)CSc1nc2ccc(NC(=O)c3cccs3)cc2s1)c1ccccc1 | inactive: 65%
30 | CCOc1ccc(NC(=O)CSc2nccn2C2CCCC2)cc1 | inactive: 89%
31 | COc1ccc(-n2c(=O)c3c4c(sc3n(CC(=O)C(C)(C)C)c2=O)CCCC4)c(OC)c1 | inactive: 64%
32 | O=C(c1ccc(-c2cccc(C(F)(F)F)c2)o1)N1CCOCC1 | inactive: 84%
33 | CCc1ccc(CNC(=O)C2CCN(C(=O)c3ccc(-n4c(C)cc5ccccc54)s3)CC2)cc1 | inactive: 70%
34 | COC(=O)c1cccc(CN2C(=O)SC(Nc3ccccc3C)C2=O)c1 (stereo not drawn) | inactive: 133%
35 | Cc1ccc(CN2C(=O)CN(C3CCCCCC3)C(=O)C2c2ccc(F)cc2)cc1 (stereo not drawn) | active: 6%
36 | N#Cc1cc2c(ccc3ccccc32)oc1=O | inactive: 71%
37 | Fc1ccc(-c2nnn3c2nc(NCc2ccccc2)c2ccccc23)cc1 | inactive: 104%
38 | O=C1CN(C(=O)c2c(F)cccc2Cl)C(c2ccc(F)cc2)c2cc(Br)ccc2N1 (stereo not drawn) | active: 42%
39 | Cn1c(=O)n(C)c2cc(N3CCOCC3)c(NS(=O)(=O)c3ccc(F)cc3)cc21 | inactive: 126%
40 | Cc1ccc2nc(/C(C#N)=C/c3ccc(-c4ccc(C(=O)OC(C)C)cc4)o3)[nH]c2c1 | active: 36%
41 | Cc1ccc2c(c1)c1c(c(=O)n(-c3ccccc3)c(=O)n1CC(=O)c1ccc(Cl)cc1)n2C | inactive: 113%
42 | Cc1c(C(=O)Oc2ccc(Br)cc2)sc2ncn(Cc3ccccc3F)c(=O)c12 | inactive: 81%
43 | Cc1ccc(NC(=O)C(=O)NCC(c2ccc3c(c2)OCO3)N2CCN(C)CC2)cc1C (stereo not drawn) | inactive: 68%
44 | COc1cc(NC(=O)Nc2c[nH]c(=O)[nH]c2=O)cc(OC)c1OC | inactive: 88%
45 | CC(C)CCNC(=O)Cn1cc(S(=O)(=O)Cc2ccc(F)cc2)c2ccccc21 | inactive: 74%
46 | COc1cc(N)ncn1 | inactive: 95%
47 | CCN(CC)S(=O)(=O)c1ccc2c(c1)c(=O)c(C(=O)N1CCN(c3ccccc3OC)CC1)cn2C | inactive: 83%
48 | COc1ccc(C(=O)Nc2nc(-c3nnn(-c4cc(OC)ccc4OC)c3C)ns2)cc1 | inactive: 109%

Row | Compound | survival
49 | Cc1ccc(OCc2cc(=O)n3c(-c4ccccc4)csc3n2)cc1 | inactive: 59%
50 | O=C(Cn1nnc(-c2cccc(C(F)(F)F)c2)n1)NCc1ccc(F)cc1 | inactive: 77%
51 | Cc1cccc(N2C(=O)CN(C(C)C)C(=O)C2c2ccc(F)cc2)c1C (stereo not drawn) | inactive: 74%
52 | CCc1ccc(CNC(=O)c2cc3cc4ccc(OC)cc4nc3o2)cc1 | inactive: 83%
53 | Cn1c(O)c(N=NC(=O)c2ccccc2)c2ccccc21 | inactive: 105%
54 | CCN(Cc1ccccc1)S(=O)(=O)c1ccc(N2CCCCS2(=O)=O)cc1 | inactive: 69%
55 | CCCCNC(=O)c1cnc2c(-c3ccc(OCC)c(OCC)c3)c(C)nn2c1-c1ccccc1 | inactive: 73%
56 | CCc1ccc2nc(N3CCC(C(=O)NCCC(C)C)CC3)sc2c1 | inactive: 144%
57 | CC1CN(C(=O)CSCc2ccccc2)CC(C)O1 (stereo not drawn) | inactive: 73%
58 | O=C(CCS(=O)(=O)c1cc2c(cc1Cl)NC(=O)CO2)NCc1ccccc1 | inactive: 106%
59 | Cc1nc2ccc(NC(=O)C3CCCCC3)cc2c(=O)n1Cc1ccccc1 | inactive: 63%
60 | O=C(C1CCCCC1)N1CCN(C(=O)C2CCCCC2)CC1 | inactive: 96%
61 | CCCCOc1ccc(S(=O)(=O)n2nc(C)c(S(=O)(=O)N3CCCCCC3)c2C)cc1 | inactive: 78%
62 | O=C1CCSC2(C(=O)N(Cc3ccccc3)c3ccccc32)N1c1ccccc1 (stereo not drawn) | inactive: 113%
63 | O=C(NCCCN1CCN(c2ccccc2F)CC1)c1sc2ncccc2c1-n1cccc1 | inactive: 92%
64 | Cc1cc(OCC#N)nc(N)n1 | inactive: 110%
65 | CC(=O)N1c2ccc(S(=O)(=O)NCC3CCC(C(=O)Nc4cccc(C)c4)CC3)cc2CC1C (stereo not drawn) | inactive: 62%
66 | CCCC(=O)OC1=C(C(C)=O)N(Cc2ccccc2)S(=O)(=O)c2ccccc21 | inactive: 75%
67 | Cc1cc(S(=O)(=O)NCCc2csc(-c3cccc(F)c3)n2)ccc1F | inactive: 89%
68 | CN(C(=O)CSc1nc2ncccc2o1)c1ccc(F)cc1 | inactive: 76%
69 | O=C(CSc1nc2cc3ccccc3cc2[nH]1)Nc1cccc(C(F)(F)F)c1 | inactive: 74%
70 | Cc1ccc2c(c1)C(C(=O)O)=Cc1ccccc1O2 | inactive: 106%
71 | Cn1c(=O)c2c(ncn2CC(=O)N(CC(=O)NC2CCCCC2)Cc2ccccc2Cl)n(C)c1=O | inactive: 77%
72 | O=C(Nc1ccc(Cl)cc1)C1C2CCCCC21 (stereo not drawn) | inactive: 90%

Row | Compound | survival
73 | CNS(=O)(=O)c1cn(CC(=O)Nc2ccc(OC)c(Cl)c2)cc1S(=O)(=O)NC | inactive: 74%
74 | COc1ccccc1N1CCN(S(=O)(=O)c2ccc(-c3cc(C(F)(F)F)on3)s2)CC1 | inactive: 73%
75 | COc1cccc(N2C(=O)C(CC(=O)Nc3cccc(F)c3)N(C(C)C)C2=O)c1 (stereo not drawn) | inactive: 94%
76 | Cc1cc(N2CCCCC2)nc2ccc(NC(=O)c3ccc(F)cc3)cc12 | inactive: 51%
77 | COCCNC(=O)CSc1nc(-c2ccc(F)cc2)[nH]c1-c1ccc(Cl)cc1 | inactive: 71%
78 | CC(CNC(=O)Cn1ncc2c3ccccc3n(Cc3cccc(Cl)c3)c2c1=O)c1ccccc1 (stereo not drawn) | inactive: 95%
79 | O=C(COc1ccccc1)Nc1ccc(OCc2cc(=O)n3ccsc3n2)cc1 | inactive: 97%
80 | COc1ccc(OC)c(C2CC(=O)N(c3cccc(C)c3)C3=C2C(=O)OC3)c1 (stereo not drawn) | inactive: 163%
81 | CCOc1ccc(C(=O)Nc2ccc(S(=O)(=O)N(Cc3ccccc3)c3ccccc3)cc2)cc1 | inactive: 73%
82 | O=C(c1ccco1)N1CCN(c2ncnc3sc4c(c23)CCC4)CC1 | active: 36%
83 | CCN1C(=O)/C(=C2\C=Cc3ccccc3N2CC)SC1=S | inactive: 77%
84 | Cc1ccc(C)c(N2CCN(c3ncnc4onc(C)c34)CC2)c1 | inactive: 90%
85 | COCc1cc(C)nc2sc3c(=O)n(-c4cc(C)ccc4C)nnc3c12 | inactive: 87%
86 | CCOC(=O)c1ccccc1NC(=O)N1CCN2CCCCC2C1 (stereo not drawn) | inactive: 73%
87 | O=C(Cc1ccccc1)N/N=C/c1cccs1 | inactive: 88%
88 | COc1ccccc1CCNC(=O)Cc1c(C)c2ccc(O)cc2oc1=O | inactive: 57%
89 | CC(=O)Nc1nonc1-c1nnc(SCC(=O)Nc2cc(C)ccc2C)n1-c1ccccc1 | inactive: 104%
90 | CCOC(=O)c1cc(OC(=O)c2cccc(C)c2)n(-c2ccccc2)n1 | inactive: 59%
91 | CS(=O)(=O)N1CCN(c2ccccc2F)CC1 | inactive: 80%
92 | COc1cccc(CNc2ncnc3onc(-c4ccc(F)cc4)c23)c1 | inactive: 71%
93 | COCc1cc(C)nc2sc3c(c12)NC(c1ccc(NC(C)=O)cc1)N(c1ccc(C)cc1)C3=O (stereo not drawn) | inactive: 67%
